Assay results taken from the supplement of paper PMC7826260.
This is one part of the list. The data describe in vitro nicking of single-stranded DNA by Rep domains for 1 h at 37 °C with 3 µM enzyme; only the middle of the 90-letter strands is printed. Values are log2 of uncut reads against the no-enzyme pool; more negative means more cut, near 0 not cut, and no call is made. Shares of all reads are compared; where an enzyme cuts many sequences, the uncut ones exceed 0.

What was measured:
Assay in all cases: uncleaved DNA left, log2 of reads against the no-enzyme library (log2 ratio); higher = less cleavage (more negative = more Rep cleavage of the k-mer); sequences stand for … in CTCGTCCG…ACCGGAGA
[1] = test system: T1, Rep nickase domain of Muscovy duck circovirus
T1 sequence (Rep 1-111, printed without the tag): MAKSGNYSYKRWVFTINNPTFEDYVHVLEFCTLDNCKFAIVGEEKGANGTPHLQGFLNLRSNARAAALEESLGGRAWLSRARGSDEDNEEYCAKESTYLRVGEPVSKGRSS
Method: (§1)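 A pool of 90-nt single-stranded DNAs with seven random bases just before the constant AC of the nick site (name = the seven bases) was cut by 3 µM recombinant His6-SUMO-tagged Rep nickase domain (300 nM DNA, 50 mM HEPES pH 8.0, 50 mM NaCl, 1 mM MnCl2, 1 h, 37 °C, three replicates). Uncut DNA was amplified and sequenced.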

[2] = test system: T2, Rep nickase domain of banana bunchy top virus
T2 sequence (Rep 1-94, printed without the tag): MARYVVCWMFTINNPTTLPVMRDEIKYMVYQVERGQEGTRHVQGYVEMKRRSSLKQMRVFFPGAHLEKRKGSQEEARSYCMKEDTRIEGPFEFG
Method: as §1

[3] = test system: T3, Rep nickase domain of cabbage leaf curl virus
T3 sequence (Rep 1-116, printed without the tag): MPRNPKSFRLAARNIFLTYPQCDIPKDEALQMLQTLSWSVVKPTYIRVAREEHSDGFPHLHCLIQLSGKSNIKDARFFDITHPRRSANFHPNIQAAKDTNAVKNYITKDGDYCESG
Method: as §1

[4] = test system: T4, Rep nickase domain of chickpea chlorotic dwarf virus
T4 sequence (Rep 1-124, printed without the tag): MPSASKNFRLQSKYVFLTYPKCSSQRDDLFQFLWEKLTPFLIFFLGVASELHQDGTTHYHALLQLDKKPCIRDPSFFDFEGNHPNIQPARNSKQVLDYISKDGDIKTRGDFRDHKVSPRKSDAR
Method: as §1

[5] = test system: T5, Rep nickase domain of faba bean necrotic yellows virus
T5 sequence (Rep 1-98, printed without the tag): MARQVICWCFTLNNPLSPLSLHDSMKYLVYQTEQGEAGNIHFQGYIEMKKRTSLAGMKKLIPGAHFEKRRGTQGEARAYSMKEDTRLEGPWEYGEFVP
Method: as §1

[6] = test system: T6, Rep nickase domain of maize striate mosaic virus
T6 sequence (Rep 1-117, printed without the tag): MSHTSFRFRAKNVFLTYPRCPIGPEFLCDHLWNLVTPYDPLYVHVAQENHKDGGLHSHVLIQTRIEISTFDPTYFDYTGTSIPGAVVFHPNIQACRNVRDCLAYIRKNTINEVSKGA
Method: as §1

[7] = test system: T7, Rep nickase domain of porcine circovirus 2
T7 sequence (Rep 2-116, printed without the tag): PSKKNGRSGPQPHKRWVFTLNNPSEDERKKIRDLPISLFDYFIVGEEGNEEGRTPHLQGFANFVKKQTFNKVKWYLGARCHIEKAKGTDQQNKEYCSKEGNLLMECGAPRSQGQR
Method: as §1

[8] = test system: T8, Rep nickase domain of tomato golden mosaic virus
T8 sequence (Rep 1-124, printed without the tag): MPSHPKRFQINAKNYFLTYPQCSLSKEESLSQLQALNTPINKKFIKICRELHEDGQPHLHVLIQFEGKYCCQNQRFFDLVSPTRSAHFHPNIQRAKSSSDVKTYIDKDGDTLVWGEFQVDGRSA
Method: as §1

[9] = test system: T9, Rep nickase domain of tomato yellow leaf curl virus
T9 sequence (Rep 1-136, printed without the tag): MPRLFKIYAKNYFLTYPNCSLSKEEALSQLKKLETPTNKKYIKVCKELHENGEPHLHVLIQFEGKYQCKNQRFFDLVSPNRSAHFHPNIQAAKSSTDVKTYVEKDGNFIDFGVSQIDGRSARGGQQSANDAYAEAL
Method: as §1

[10] = test system: T10, Rep nickase domain of wheat dwarf virus
T10 sequence (Rep 1-137, printed without the tag): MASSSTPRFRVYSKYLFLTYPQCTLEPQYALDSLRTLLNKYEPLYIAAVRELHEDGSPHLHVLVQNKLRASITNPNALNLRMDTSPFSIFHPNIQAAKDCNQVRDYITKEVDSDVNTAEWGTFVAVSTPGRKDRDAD
Method: as §1

| Sequence | uncleaved DNA left (log2) [1] | uncleaved DNA left (log2) [2] | uncleaved DNA left (log2) [3] | uncleaved DNA left (log2) [4] | uncleaved DNA left (log2) [5] | uncleaved DNA left (log2) [6] | uncleaved DNA left (log2) [7] | uncleaved DNA left (log2) [8] | uncleaved DNA left (log2) [9] | uncleaved DNA left (log2) [10] |
| --- | --- | --- | --- | --- | --- | --- | --- | --- | --- | --- |
| AGTAGTG | 0.0381 | 0.0367 | -0.261 | -0.169 | 0.0251 | -0.573 | 0.218 | 0.171 | 0.138 | 0.0233 |
| GGGGTAA | -0.0432 | -0.028 | 0.756 | 1.79 | -0.124 | 2.16 | 0.103 | -0.142 | 0.0504 | 0.0864 |
| TGGAAGA | 0.00434 | 0.0262 | 0.293 | 0.682 | -0.0927 | 0.0814 | 0.0767 | -0.0239 | 0.0095 | 0.106 |
| AAAGGTC | 0.118 | 0.122 | 0.3 | 0.881 | 0.0422 | 0.931 | 0.142 | 0.114 | 0.0177 | 0.022 |
| CTTTGCT | -0.327 | -0.000782 | -0.771 | -1.13 | 0.0233 | -1.17 | -0.436 | -0.155 | -0.000397 | -0.16 |
| AGTCCTT | 0.0535 | 0.00224 | 0.634 | 0.806 | -0.104 | 1.72 | -3.19 | -0.12 | 0.066 | 0.181 |
| ATACGCT | -0.0652 | -0.101 | -0.954 | -2.44 | -0.0793 | -1.03 | -0.0328 | -0.0835 | -0.0826 | -0.221 |
| CGACATT | -0.195 | -0.0257 | 0.398 | 1.21 | -0.115 | 1.73 | -0.0351 | -0.326 | -0.101 | 0.018 |
| ATTTTCA | -0.237 | -0.0914 | -0.169 | -1.68 | -0.103 | -0.664 | -0.499 | -0.0624 | -0.0863 | 0.00632 |
| AATGACA | 0.0415 | 0.0547 | 0.0592 | 0.0209 | -0.0314 | 0.515 | -0.025 | 0.0414 | 0.1 | 0.0862 |
| CGGAGGC | 0.0213 | -0.0103 | 0.121 | 0.484 | -0.0418 | 0.061 | 0.0379 | -0.0347 | -0.0512 | 0.0137 |
| TGTTCTT | -3.29 | -0.27 | 0.0521 | -1.1 | -0.115 | 0.849 | -2.73 | -0.108 | -0.0137 | -0.0429 |
| GACCGGC | -0.132 | -0.0797 | -0.0308 | 0.22 | -0.12 | -0.255 | -0.00327 | -0.123 | -0.141 | -0.209 |
| GGCTCCC | 0.0167 | 0.0743 | 0.308 | 0.575 | 0.0607 | 0.958 | -0.365 | 0.0403 | 0.167 | 0.174 |
| CACGGAC | 0.0881 | 0.0873 | 0.376 | 1.14 | 0.101 | 0.999 | 0.178 | 0.0869 | 0.141 | 0.156 |
